Out of some 310,000 compounds screened, about 14,000 (4.5%) showed an effect of 50% or more. The effect is printed as a negative number. Some of the results follow.
The compounds below were run against human ether-à-go-go-related gene (hERG) potassium channel (human, UniProt Q12809) (assay: primary screen, population patch clamp on CHO cells stably expressing hERG).
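Note: peak tail current of the secondary pulse compared with the same well before compound.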

Chain of human ether-à-go-go-related gene (hERG) potassium channel (Q12809 whole entry, looked up): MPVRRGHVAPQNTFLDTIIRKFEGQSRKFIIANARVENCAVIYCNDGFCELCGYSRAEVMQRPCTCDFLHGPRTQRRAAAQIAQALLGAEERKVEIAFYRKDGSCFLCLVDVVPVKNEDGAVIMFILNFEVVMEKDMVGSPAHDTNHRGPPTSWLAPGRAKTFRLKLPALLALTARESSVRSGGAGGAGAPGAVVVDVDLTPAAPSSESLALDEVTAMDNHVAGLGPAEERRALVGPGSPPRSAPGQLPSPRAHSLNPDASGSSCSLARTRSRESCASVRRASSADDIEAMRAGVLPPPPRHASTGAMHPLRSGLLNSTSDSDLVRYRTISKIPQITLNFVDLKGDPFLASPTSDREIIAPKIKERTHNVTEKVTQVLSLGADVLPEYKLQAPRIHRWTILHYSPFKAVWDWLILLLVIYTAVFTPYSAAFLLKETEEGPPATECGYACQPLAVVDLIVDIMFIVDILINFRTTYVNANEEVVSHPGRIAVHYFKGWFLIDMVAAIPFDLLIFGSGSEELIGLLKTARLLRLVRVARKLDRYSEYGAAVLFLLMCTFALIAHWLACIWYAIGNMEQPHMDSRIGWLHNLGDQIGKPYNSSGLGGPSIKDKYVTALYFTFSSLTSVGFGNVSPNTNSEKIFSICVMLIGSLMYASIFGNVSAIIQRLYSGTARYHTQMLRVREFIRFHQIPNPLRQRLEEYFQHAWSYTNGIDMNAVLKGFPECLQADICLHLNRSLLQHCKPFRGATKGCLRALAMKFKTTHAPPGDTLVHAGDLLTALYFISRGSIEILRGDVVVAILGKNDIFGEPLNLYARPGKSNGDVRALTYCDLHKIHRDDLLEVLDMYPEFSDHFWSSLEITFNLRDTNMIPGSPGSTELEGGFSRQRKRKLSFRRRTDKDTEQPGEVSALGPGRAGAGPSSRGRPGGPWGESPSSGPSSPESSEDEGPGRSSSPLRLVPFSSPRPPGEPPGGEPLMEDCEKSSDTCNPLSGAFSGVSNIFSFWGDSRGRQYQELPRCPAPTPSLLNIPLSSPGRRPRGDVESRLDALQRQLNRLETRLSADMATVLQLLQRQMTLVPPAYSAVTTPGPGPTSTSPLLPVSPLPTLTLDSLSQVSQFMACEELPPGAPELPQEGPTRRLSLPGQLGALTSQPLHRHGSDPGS

SMILES	hERG current change (%, negative = inhibition) at 10uM [%]
CCCCn1c(=O)c(CCC(=O)OCC(=O)NCc2ccc(OC)c(OC)c2)nc2ccccc21	-19.8
O=C(c1ccc(-c2cccc(Cl)c2)o1)N1CCN(c2ccc([N+](=O)[O-])cc2)CC1	-58.9
Cc1n[nH]c(C)c1S(=O)(=O)N1CCCC(C(=O)NCC2COc3ccccc3O2)C1 (centres unmarked)	0.365
O=C(Cn1ncc2c3ccccc3n(Cc3ccccc3F)c2c1=O)N1CCN(c2ccccn2)CC1	-7.01
Cc1ccc(C(O)C(=O)c2ccco2)cc1 (centres unmarked)	18.4
CN(C)C(=O)CCC(=O)N1CCCC(C(=O)c2ccc3c4c(cccc24)CC3)C1 (centres unmarked)	-20.2
C[C@@H](O)C1NC(=O)[C@H](CCCCN)NC(=O)c2cc([N+](=O)[O-])cc(I)c2NCCC[C@@H](C(N)=O)NC1=O (some centres unmarked)	18
CC(C)c1ccc(NC(=S)NCc2ccc3c(c2)OCO3)cc1	-12.6
Cc1cc(OCc2cc(C(=O)N(Cc3nccn3C)C(C)C)no2)cc(C)c1Cl	-58.5
Cc1occc1C(=O)N1CCN(S(=O)(=O)c2ccccc2)CC1	8.32
CNC(=O)CN(Cc1ccccc1)S(=O)(=O)c1ccccc1	-6.77
CC1(C)SCC2C(=O)N3C(CSC3(C)C)C(=O)N21 (centres unmarked)	-3.42
COc1ccccc1N(CC(O)COc1ccccc1)S(=O)(=O)c1ccccc1 (centres unmarked)	-10.3
O=C(COc1ccccc1)c1cn(CC(=O)N2CCCC2)c2ccccc12	-0.488
NNC(=O)c1cnn(Cc2ccccc2)c1N	3.58
O=C(NCCCN1CCOCC1)c1cc(-c2ccc(F)cc2)nc2ccccc12	-27.5
Cc1cc(N2C(=O)C(=O)/C(=C(/O)c3ccc(F)cc3)C2c2ccc(F)cc2)no1 (centres unmarked)	23.9
CC1=Nc2cc(C(=O)O)ccc2Sc2c(C)ccc(C)c21	-7.58
Cc1cnc(C(=O)OCC(=O)Nc2oc(-c3ccccc3)c(-c3ccccc3)c2C#N)cn1	-8.22
COc1ccc(CN2C(=O)c3cccnc3C2=O)cc1S(=O)(=O)N1CCCC(C)C1 (centres unmarked)	-0.978
Cc1ccnc(N2CCCC(C(=O)Nc3ccc(C)c(C)c3)C2)n1 (centres unmarked)	6.45
COc1cc(Cl)c(C)cc1NC(=O)CSc1ccc(C)cc1	12.7

SMILES	hERG current change (%, negative = inhibition) at 10uM [%]
O=C(COc1ccc(Cl)cc1)Nc1ccc2oc(=O)ccc2c1	3.7
C/C(CC(=O)N1CCCC1)=N\NC(=O)c1cc2ccccc2cc1O	4.98
O=C(O)c1cccc(CN2C(=O)S/C(=C/c3cccc([N+](=O)[O-])c3)C2=O)c1	10.3
COc1ccc(OC)c(C2N(c3ccc(Cl)cc3)C(=O)C3CCCN32)c1 (centres unmarked)	19.3
Cc1cc(C)nc(/N=C2\NC(=O)CC(C(=O)O)N2CCc2c[nH]c3ccccc23)n1 (centres unmarked)	12.8
CC(C)(C)c1[nH]nc2c1C(c1ccc(OC(=O)c3ccco3)cc1)C(C#N)=C(N)O2 (centres unmarked)	11.1
CC1(C)Cc2cccc(OCC(=O)N3CCN(S(=O)(=O)c4ccc(F)cc4)CC3)c2O1	-21.6
Cc1csc2nc(CN3CCN(CC(=O)N(C)C)CC3)cc(=O)n12	10
O=C(Nc1ccc(Cl)c(C(F)(F)F)c1)NC1CC2CCCC(C1)N2C1CC1 (centres unmarked)	-10.1
CCOC(=O)N1CCN(C(=O)COC(=O)COc2c(C)cc(C)cc2C)CC1	-9.8
CC1CC(NNC(=O)c2ccccc2)=Nc2ccccc2N1C (centres unmarked)	-1.15
O=C1C2C3C=CC(C3)C2C(=O)N1c1nc2ccccc2s1 (centres unmarked)	-1.49
CCOc1ccc(Cc2nnc(SCC(=O)Nc3ccc(C(C)=O)cc3)[nH]c2=O)cc1	13.2
Cc1[nH]ncc1-c1nc2ccccc2[nH]1	8.35
CC(=O)Nc1cccc(C(=O)OCC(=O)N2CCC(c3ccccc3)=N2)c1	-19.2
O=C(O)CN1C(=O)CSC1=S	21.2
O=C(NCc1ccccc1F)C1CCN(C(=O)c2sccc2-n2cccc2)CC1	-3.91
CCOc1ccccc1NC(=O)c1cc(C(=O)Nc2ccccc2OCC)cc(N2C(=O)CCC2=O)c1	6.64
C=CCn1c(SC(C)C(=O)c2c(N)n(C)c(=O)n(C)c2=O)nnc1-c1ccoc1C (centres unmarked)	0.626
CC(=O)Nc1ccc(NC(=O)CC2Nc3cccc4cccc(c34)NC2=O)cc1 (centres unmarked)	8.18
Cc1cc(C)cc(N(CC(=O)Nc2ccc(C(F)(F)F)cc2)S(=O)(=O)c2c(C)[nH]c(=O)[nH]c2=O)c1	-88
CC(=O)N1CCN2C(=O)C1CCCC(=O)c1cc(C(C)C)ccc12 (centres unmarked)	8.03

SMILES	hERG current change (%, negative = inhibition) at 10uM [%]
CCCCOC(=O)c1ccc(NC(=O)c2nn(C)cc2Br)cc1	6.19
CCOc1ccccc1C(=O)N1CCN=C1SC	15
COc1ccc(C(=O)Nc2ccc(Cl)cc2C(=O)NCc2ccco2)cc1OC	-26.9
CCOc1ccc(NC(=O)CN(C)C(=O)CCCc2nc3ccccc3c(=O)[nH]2)cc1OCC	14.4
CCOC(=O)CNC(=O)c1sc2ncnc(N3CCc4ccccc4C3)c2c1C	-36.6
O=C(NC(=S)Nc1ccc(N2CCOCC2)cc1)c1ccc(Cl)cc1	11.1
CCOc1ccccc1-n1cnc(C#N)c1N	8.68
O=C(NC(=S)Nc1cccc(CO)c1)c1ccc(-c2ccccc2)cc1	10.4
COc1cc(C)c(CN2CCSCC2)cc1C	10.1
Cc1nc([N+](=O)[O-])c(C(=O)O)n1C	9.89
N#C/C(=C/c1ccc(-c2cc([N+](=O)[O-])ccc2Cl)o1)C(N)=O	1.62
C=CCc1ccccc1OCC(O)CN1CCN(CCO)CC1.Cl (centres unmarked)	11.3
Cc1ccc(S(=O)(=O)c2nc(N3CCOCC3)sc2Cl)cc1	-22.7
CC(C)N(CC(N)=O)c1ncnc2sc(-c3ccccc3)cc12	-16.7
Cc1nc2c(-c3ccccc3)cnn2c(N)c1-c1ccccc1	19
Cc1ccc(C(=O)CCNc2ccc(Cl)cc2)o1	-9.13
CCOC(=O)COn1c(SCC(=O)OCC)nc2ccccc2c1=O	-23.5
COc1ccc(F)cc1S(=O)(=O)N1CCN(C(=O)c2ccco2)CC1	12.4
COc1ccc(CN(C)S(=O)(=O)c2nnc(NC(=O)c3cccc(F)c3)s2)cc1OC	19.9
CC1CC(=O)c2cnc(N3CCOCC3)nc2C1 (centres unmarked)	-4.13
Cc1cc(C)c(S(=O)(=O)NCC2CCC(C(=O)NCc3ccccn3)CC2)c(C)c1 (centres unmarked)	-47
NN1C(=O)/C(=C\c2ccco2)SC1=S	-1.9

SMILES	hERG current change (%, negative = inhibition) at 10uM [%]
Cc1ccnc(NCc2ccccc2O)c1	14.6
NS(=O)(=O)c1cccc(NC(=O)CN2CCCc3ccccc32)c1	9.68
c1ccc(CN2CCN(c3ncnc4nc[nH]c34)CC2)cc1	-3.17
CCOc1ccc(NC(=O)CN(C)C(=O)C2CSC3(C)CCC(=O)N23)cc1OCC (centres unmarked)	-7.18
COc1ccccc1CNS(=O)(=O)c1ccc(Br)s1	-10.8
CN1CCN(C(=O)c2ccc3c(c2)N(Cc2ccccc2F)C(=O)c2ccccc2S3=O)CC1 (centres unmarked)	5.05
O=C(/C=C/c1ccc(Cl)cc1)NC1CC2CCC1C2 (centres unmarked)	-53.1
CN1CCCN(S(=O)(=O)c2cccc(C(F)(F)F)c2)c2nc3ccccc3nc21.Cl	5.8
Cc1[nH]n(-c2ccc([N+](=O)[O-])cc2)c(=O)c1C=NCCN1CCN(C(=O)c2ccc(F)cc2)CC1	-73.7
O=C(COC(=O)c1ccc[n+]([O-])c1)Nc1c(Br)cc([N+](=O)[O-])cc1Br	4.49
COC(=O)C1CCN(CC(=O)Nc2ccc(C(=O)Nc3ccccc3OC)cc2)CC1	-37.9
Cc1cc(C(=O)NCCN2C(=O)S/C(=C\c3cccs3)C2=O)ccc1[N+](=O)[O-]	-1.91
CCOc1ccc(NS(=O)(=O)c2ccc(C(=O)N3CCC3)cc2)cc1	-4.09
CC1CC(C)CN(S(=O)(=O)c2ccc3c(c2)oc(=O)n3CC(=O)N(C)Cc2ccccc2)C1 (centres unmarked)	7.04
CC(C)CCn1c(=O)c(C(=O)Nc2ccccc2S(N)(=O)=O)c(O)c2ccccc21	-11.4
Brc1ccc(/C=N/Nc2ccccc2)cc1	17.1
Cc1onc(-c2ccccc2Cl)c1C(=O)N1CCCCC1	13.9
COCC(=O)NC1(c2nnnn2CCOC(=O)Nc2ccc(Cl)cc2)CCCCC1	1
CC[n+]1c(/C=C/C=C/N(C(C)=O)c2ccccc2)sc2cc(OC)ccc21.[I-]	-32.8
Cc1ccc(-n2nnnc2CNC(=O)C2CC(=O)N(c3ccc(F)cc3)C2)cc1C (centres unmarked)	-39.9
